Data reported in the supplement of paper PMC7125110.
Variants at the floor of the assay are shown more often than the library holds them.

B1: glmS ribozyme (parent)
chain: AUAAAAGCGCCAGAACUACAGAAAUGUAGUUGACGAGGAGGAGGUUUAUCGAAUUUUCGGCGGAUGCCUCCAAA

Tests used:
Conditions in all cases: with glucosamine-6-phosphate
[1] = variants of: B1; experiment: self-cleavage kobs at 640 uM GlcN6P; higher = faster cleavage; RNA array
In short: (§1)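 The measurements used barcoded ribozyme variants on sequenced MiSeq chips, transcribed in situ by E. coli RNA polymerase and tracked at 37 °C with a hybridised Cy3 probe. Glucosamine-6-phosphate, 40 μM to 10 mM in HEPES/KCl/Mg(OAc)2 buffer, was flowed in while tiles were imaged over ~14 h. Baseline-normalised signals, also normalised to non-cleaving reference variants, gave per-tile medians that were fit to one- or two-exponential decays for kobs. kcat and KM resulted from weighted Michaelis–Menten fits across concentrations.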

[2] = variants of: B1; experiment: self-cleavage kobs at 2500 uM GlcN6P; higher = faster cleavage; RNA array
In short: as §1

[3] = variants of: B1; experiment: self-cleavage kobs at 10000 uM GlcN6P; higher = faster cleavage; RNA array
In short: as §1

[4] = variants of: B1; experiment: self-cleavage kobs at 160 uM GlcN6P; higher = faster cleavage; RNA array
In short: as §1

Row | Variant | self-cleavage kobs at 640 uM GlcN6P [1] | self-cleavage kobs at 2500 uM GlcN6P [2] | self-cleavage kobs at 10000 uM GlcN6P [3] | self-cleavage kobs at 160 uM GlcN6P [4]
1 | A6C G37U U56C | < 1e-05 s⁻¹ | < 1e-05 s⁻¹ | – | –
2 | A6C G43A A64U | < 1e-05 s⁻¹ | – | – | –
3 | A6C G44A G51U | < 1e-05 s⁻¹ | < 1e-05 s⁻¹ | – | –
4 | A6C G66U C70U | < 1e-05 s⁻¹ | < 1e-05 s⁻¹ | – | –
5 | A6C U31A C58G | < 1e-05 s⁻¹ | < 1e-05 s⁻¹ | – | –
6 | A6C U57A C61U | < 1e-05 s⁻¹ | < 1e-05 s⁻¹ | – | –
7 | A6G A12U A33U | < 1e-05 s⁻¹ | – | < 1e-05 s⁻¹ | –
8 | A6G A12U A53G U56A G66U | < 1e-05 s⁻¹ | – | – | –
9 | A6G A14C A42G G60C | < 1e-05 s⁻¹ | – | < 1e-05 s⁻¹ | < 1e-05 s⁻¹
10 | A6G A15U G62U | < 1e-05 s⁻¹ | < 1e-05 s⁻¹ | – | < 1e-05 s⁻¹
11 | A6G A33C C50U G59U | < 1e-05 s⁻¹ | – | – | < 1e-05 s⁻¹
12 | A6G A36C G43U A64G | < 1e-05 s⁻¹ | – | – | –
13 | A6G A52U G66A | < 1e-05 s⁻¹ | < 1e-05 s⁻¹ | – | < 1e-05 s⁻¹
14 | A6G C34G G51U G63A | < 1e-05 s⁻¹ | < 1e-05 s⁻¹ | – | < 1e-05 s⁻¹
15 | A6G G7C A15U | < 1e-05 s⁻¹ | < 1e-05 s⁻¹ | < 1e-05 s⁻¹ | < 1e-05 s⁻¹
16 | A6G G13C G66U | < 1e-05 s⁻¹ | < 1e-05 s⁻¹ | < 1e-05 s⁻¹ | –
17 | A6G G13U U30C A52G | < 1e-05 s⁻¹ | < 1e-05 s⁻¹ | – | < 1e-05 s⁻¹
18 | A6G G32A A42C | < 1e-05 s⁻¹ | < 1e-05 s⁻¹ | – | < 1e-05 s⁻¹
19 | A6G G32C G38A U55C | < 1e-05 s⁻¹ | < 1e-05 s⁻¹ | – | –
20 | A6G G32U G51A | < 1e-05 s⁻¹ | < 1e-05 s⁻¹ | – | –
21 | A6G G37A G41A | < 1e-05 s⁻¹ | < 1e-05 s⁻¹ | < 1e-05 s⁻¹ | –
22 | A6G G38A C58A G66C | < 1e-05 s⁻¹ | – | – | –
23 | A6G G38C G43U U56A U69A | < 1e-05 s⁻¹ | < 1e-05 s⁻¹ | – | –
24 | A6G G38U A64G G66C | < 1e-05 s⁻¹ | – | – | –
25 | A6G G40U G41C A53U | < 1e-05 s⁻¹ | – | – | –
26 | A6G G43A C70U | < 1e-05 s⁻¹ | < 1e-05 s⁻¹ | < 1e-05 s⁻¹ | < 1e-05 s⁻¹
27 | A6G G59C | < 1e-05 s⁻¹ | < 1e-05 s⁻¹ | – | < 1e-05 s⁻¹
